Experimental data: the supplement of paper PMC10126150
Values marked as one replicate rest on one cluster of the flow cell; about a third of the high ones do not repeat.

system: ATP; test: switch fluorescence ratio, 500 uM ATP over buffer (Cy3 cluster intensity, sum of 5 cycles each) (fold (ratio)); higher = stronger signal-on switching upon ATP binding; sequences stand for … in TCGTCGGCAGCGTCAGATGTGTATAAGAGACAGTTTTTTTTTTTTTTTTTTTTTTTTT…TC; settings: aptamer strand: ATP DNA aptamer (quencher-CACCTGGGGGAGTATTGCGGAGGAAGG + anchor), 100 nM annealed; ATP concentration: 500 uM; one replicate
In short: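 Clusters carrying Cy3-labelled switching strands on a modified Illumina MiSeq flow-cell were annealed to 100 nM quencher-labelled ATP aptamer and imaged in selection buffer. They were imaged again after 15 min with 500 uM ATP at 22 °C, over five buffer/ATP cycles with NaOH stripping and re-annealing in between. For each cluster, the fluorescence ratio is the summed Cy3 intensity of the target cycles divided by that of the buffer cycles, averaged per switch-domain sequence. Clusters outside 100-1000 RFU were left out.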
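Further: ATP exposure 15 min at 22 °C before imaging.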

| Sequence | switch fluorescence ratio |
| --- | --- |
| ACAGACTGTT | 0.981 |
| ACAGAGAGAC | 1.03 |
| ACAGAGAGTT | 1.02 |
| ACAGAGGCTG | 1.02 |
| ACAGAGGTCC | 0.999 |
| ACAGAGTGCG | 1.03 |
| ACAGATATGG | 1.02 |
| ACAGATATTA | 0.999 |
| ACAGCAGCAG | 1.14 |
| ACAGCCTCGA | 1.02 |
| ACAGCGGCCA | 1.03 |
| ACAGCTGGCA | 0.968 |
| ACAGCTGGGA | 1.01 |
| ACAGCTGGTG | 1.11 |
| ACAGGACGGT | 1.1 |
| ACAGGAGGAC | 1.01 |
| ACAGGCAAAA | 0.984 |
| ACAGGCAATT | 0.982 |
| ACAGGCTTTC | 1.06 |
| ACAGGGAAGC | 1.07 |
| ACAGGGCTG | 0.966 |
| ACAGGGCTT | 1.02 |
| ACAGGTACT | 1.12 |
| ACAGGTAGGC | 1 |
| ACAGGTCTCA | 1.02 |

| Sequence | switch fluorescence ratio |
| --- | --- |
| ACAGGTGCCA | 1.67 |
| ACAGTAAATC | 1.01 |
| ACAGTAGAGA | 1.03 |
| ACAGTAGAGC | 0.995 |
| ACAGTATGTA | 0.964 |
| ACAGTGGGCA | 1.02 |
| ACAGTTAGTT | 1.02 |
| ACAGTTCAAT | 1.02 |
| ACATAAGGGA | 1.05 |
| ACATAATTAC | 1.12 |
| ACATACATTT | 1.25 |
| ACATAGCCTC | 1.05 |
| ACATAGTACA | 1.04 |
| ACATAGTGCC | 1.05 |
| ACATAGTTCA | 1 |
| ACATATAGCG | 0.958 |
| ACATATGATT | 1.03 |
| ACATATTTCG | 1 |
| ACATCATGGT | 0.995 |
| ACATCCAGCA | 1.05 |
| ACATCCGATG | 1.02 |
| ACATCGCTGT | 1.1 |
| ACATCGTTTT | 0.985 |
| ACATCTCTGC | 1.02 |
| ACATGATTAG | 1.01 |

| Sequence | switch fluorescence ratio |
| --- | --- |
| ACATGCGCTG | 1.02 |
| ACATGCGGCG | 1.07 |
| ACATGGGCCC | 0.995 |
| ACATGGTGTC | 1.02 |
| ACATGTTTCC | 1.02 |
| ACATGTTTG | 0.986 |
| ACATTACCG | 1.35 |
| ACATTAGTTC | 1.03 |
| ACATTCTGGT | 0.968 |
| ACATTGATAG | 1.05 |
| ACATTGTGGT | 0.979 |
| ACATTTAAGA | 1.04 |
| ACATTTAAGG | 0.998 |
| ACATTTACCT | 1.35 |
| ACATTTATA | 0.979 |
| ACATTTCCTA | 1.02 |
| ACATTTCGGC | 1.01 |
| ACATTTTGAA | 0.991 |
| ACATTTTGAC | 0.966 |
| ACCAAAATCA | 1.05 |
| ACCAAACATT | 1.08 |
| ACCAAATTGA | 0.993 |
| ACCAACACGG | 1.21 |
| ACCAACGCGT | 1.05 |
| ACCAACTTCT | 1.11 |

| Sequence | switch fluorescence ratio |
| --- | --- |
| ACCAAGGGAC | 1.08 |
| ACCAATTATG | 1.04 |
| ACCACAACTA | 1.07 |
| ACCACACCAT | 1.34 |
| ACCACCAAGA | 1.09 |
| ACCACGGGA | 1.05 |
| ACCACTGGTG | 1.04 |
| ACCACTTAGA | 1.07 |
| ACCAGACCTA | 1.14 |
| ACCAGCGACT | 1.05 |
| ACCAGGACGA | 1.05 |
| ACCAGGAGGT | 1.05 |
| ACCAGGCTTA | 1.06 |
| ACCAGGTAGG | 1.13 |
| ACCAGTATAG | 1.02 |
| ACCAGTGGCG | 1.08 |
| ACCAGTTTGG | 1 |
| ACCATACATT | 1.22 |
| ACCATAGCAT | 1.41 |
| ACCATCTCAG | 1.02 |
| ACCATGCACG | 1.1 |
| ACCATGCCTA | 0.993 |
| ACCATGGGGA | 0.97 |
| ACCCAACTCT | 1.18 |
| ACCCACATTT | 1.22 |

| Sequence | switch fluorescence ratio |
| --- | --- |
| ACCCACCTAC | 1.48 |
| ACCCAGCATT | 1.17 |
| ACCCATGGGG | 1.01 |
| ACCCCCTTGA | 1.21 |
| ACCCCGTACC | 1.26 |
| ACCCCGTGCG | 1.14 |
| ACCCGAAGCC | 1.9 |
| ACCCGCTTAT | 2.53 |
| ACCCGGTAAG | 1.01 |
| ACCCGGTGGG | 0.985 |
| ACCCGGTGTT | 1.85 |
| ACCCGGTTGG | 1.06 |
| ACCCGTATTC | 1 |
| ACCCTGAGGT | 1.07 |
| ACCCTGGGAT | 1.03 |
| ACCCTTGGT | 1.16 |
| ACCCTTTGTG | 0.999 |
| ACCCTTTTTT | 1.05 |
| ACCGACGATC | 2.05 |
| ACCGAGAAGT | 1.01 |
| ACCGAGTATC | 1.04 |
| ACCGAGTATT | 1.03 |
| ACCGAGTGTG | 1 |
| ACCGCACTGA | 1.66 |
| ACCGCCGAGA | 0.998 |

| Sequence | switch fluorescence ratio |
| --- | --- |
| ACCGCGCCGC | 1.75 |
| ACCGCTCGAG | 1.13 |
| ACCGCTTGAA | 1.04 |
| ACCGGACTTC | 1.07 |
| ACCGGAGTTG | 1.04 |
| ACCGGCCGGT | 1.01 |
| ACCGGGAGCG | 1.05 |
| ACCGGGGTAG | 1.04 |
| ACCGGTACGG | 0.948 |
| ACCGGTCTAG | 0.94 |
| ACCGGTGAGG | 0.969 |
| ACCGGTGGGA | 1.01 |
| ACCGTCTAAT | 1.01 |
| ACCGTCTACT | 1.08 |
| ACCGTGTCCA | 0.97 |
| ACCGTGTTTT | 1 |
| ACCGTTCAGT | 1 |
| ACCGTTGTAC | 2.73 |
| ACCTAAAACT | 1.1 |
| ACCTAAAGT | 1.04 |
| ACCTAATCGG | 1.02 |
| ACCTACACTA | 1.3 |
| ACCTAGCTTG | 1.03 |
| ACCTATTTAA | 1.04 |
| ACCTCAGCAT | 2.41 |

| Sequence | switch fluorescence ratio |
| --- | --- |
| ACCTCATCA | 1.07 |
| ACCTCATTGC | 1.05 |
| ACCTCGATGC | 1.63 |
| ACCTCGCCT | 1.09 |
| ACCTCGCTCA | 1.15 |
| ACCTCTGAAG | 1.28 |
| ACCTGCAACT | 1.35 |
| ACCTGTCTCG | 1.09 |
| ACCTTACGTG | 1.48 |
| ACCTTCCGCG | 3.01 |
| ACCTTCGGCG | 1.33 |
| ACCTTTCCTA | 1.33 |
| ACCTTTGACA | 1.11 |
| ACGAAAATAC | 2.03 |
| ACGAACAGG | 1.55 |
| ACGAACATAT | 1.27 |
| ACGAACCTGG | 1.34 |
| ACGAAGGTGG | 0.987 |
| ACGAAGTGGG | 0.964 |
| ACGAATAACG | 1.03 |
| ACGAATATTC | 1.01 |
| ACGAATGAAT | 1.16 |
| ACGAATTGCT | 0.991 |
| ACGACAAGTT | 1.08 |
| ACGACAGCGG | 1.13 |

| Sequence | switch fluorescence ratio |
| --- | --- |
| ACGACAGGGC | 1.12 |
| ACGACGACAA | 5.3 |
| ACGACTAGGA | 1.11 |
| ACGAGGCCTA | 1.13 |
| ACGAGGGCAG | 1.03 |
| ACGAGGTCAC | 1.04 |
| ACGAGGTTGC | 1.03 |
| ACGAGTAG | 1.01 |
| ACGAGTGTTC | 1.05 |
| ACGATAATTG | 1.05 |
| ACGATAGCTC | 1.34 |
| ACGATAGTCA | 0.992 |
| ACGATATCTT | 1.11 |
| ACGATATTTC | 1.05 |
| ACGATCAACT | 1.01 |
| ACGATCACGT | 1.12 |
| ACGATCGGTA | 1 |
| ACGATGACGA | 1.01 |
| ACGATGCTTG | 1.02 |
| ACGATGGGCT | 0.973 |
| ACGATTAATC | 1.07 |
| ACGATTATTG | 1.02 |
| ACGATTCCAT | 1.02 |
| ACGCACAGTG | 1.25 |
| ACGCACGTTC | 1.47 |
